The whole screen tested about 4,800 compounds, of which about 410 (8.5%) showed an effect of 50% or more. The list shows a part of the results.
The molecules below were run on Plasmodium falciparum (assay: Confirmatory screen in NF54 pLDH assay, in single point, at 2uM, 72h). Conditions: timepoint 72 hour.
Format: functional, Erythrocyte

SMILES	% Inhibition
COc1ccc([C@H](C)NC(=O)/C(=C/c2ccccc2Cl)c2ccccc2)cc1	-28%
Cc1cc(OC(F)F)c(C(=O)NC(C)CCC2CCCO2)s1 (stereo unspecified)	-6%
Cc1nn(C)c(C)c1CCCN[C@@H](C)c1cccc(O)c1	4%
CC1CC1C(=O)Nc1cc(F)ccc1NC(=O)c1ccccn1 (stereo unspecified)	7%
CCN(CC)c1nc(-c2ccccc2)c(C#N)c(N)c1C#N	12%
COc1cc(Cl)cc2c1OC=CC(C(=O)Nc1ccc(C)cc1)=C2	-2%
C[C@@H](C(=O)Nc1cccc2ccccc12)c1ccc(-c2ccccc2)c(F)c1	-17%
Cc1c(Cl)c(C(F)(F)F)nn1[C@@H](C)C(=O)NC1CCN(C(C)C)CC1	8%
CC(=O)c1cccc(S(=O)(=O)N2CCN(C(=O)c3ccc4c(c3)CCC4)CC2)c1	9%
COc1ccccc1CNC(=O)c1cn(CC2(O)CCN(Cc3ccccc3)CC2)nn1	12%
CCN(C(=O)CN1C(=O)C(c2ccccc2)=NC12CCC(C)CC2)c1ccccc1 (stereo unspecified)	-6%
Cn1cccc1C(=O)NC1CCN(c2ccc(Cl)c(C#N)n2)CC1	13%
Cc1ccc(NC(=O)c2cc3nccc(-c4ccc(F)cc4)n3n2)nc1	4%
CCc1nnc(COC(=O)c2csc(NC)n2)o1	9%
Cc1ccc(C)n1-c1ccc(Cl)c(C(=O)N[C@H]2CCN(CC(F)(F)F)C2)c1	-1%
Clc1ccccc1CNCC#Cc1ccccc1	6%
Cc1cc([C@@H](C)C(=O)NC2(C(=O)O)CCCCC2)c(C)o1	-25%
COc1cc(Cl)cc2c1OC=CC(C(=O)NC(c1ccccc1)c1ccccc1)=C2	3%
COc1ccc(CNC(=O)c2cc(C(=O)C3CC3)c[nH]2)cc1	-10%
Cc1nnc(NC(=O)c2cc(N3CCCC3)ncn2)s1	-10%
Cc1noc(C)c1NC(=O)c1cc(-c2cccs2)nc2c1c(C)nn2C	-7%
Nc1c(-c2ccccc2)nsc1C(=O)NCc1ccc(F)cc1	9%
c1ccc(-c2cn3c(n2)c(-c2ccc4ccccc4n2)cc2ccccc23)cc1	43%
Oc1c([C@@H](c2ccccn2)N2CCCC2)ccc2cccnc12	48%
CC1=C(C(=O)N2CCN(C)CC2)[C@H](c2ccccc2C)n2ncnc2N1	8%
Cc1cc(S(=O)(=O)N(C)C[C@H](O)C(F)(F)F)sc1C	-3%

SMILES	% Inhibition
Clc1ccc(CNCCc2c[nH]cn2)cc1	-1%
CCO[C@@H](C)C(=O)Nc1n[nH]c(Cc2cccc(F)c2)n1	8%
O=C1CN(C(=O)Cc2c(F)cccc2Cl)C2(CCCC2)CN1	-13%
Cc1ccccc1CNC(=O)[C@H]1CCCN(c2nc3cccnc3n(Cc3ccccc3)c2=O)C1	-6%
c1ccc(-c2c[nH]nc2N2CCOCC2)cc1	18%
COC(=O)c1ccccc1N(C)S(=O)(=O)c1cc2c(cc1C)OCC(=O)N2	-5%
Cc1ccc(F)c(N2CCC(NS(=O)(=O)c3ccc(F)cc3Br)CC2)c1	9%
Cc1ccc2nc3c(c(N)c2c1)CCCCN3C	-20%
CCc1cnccc1[C@H](C)NC(=O)CN1C(=O)Cc2ccccc21	10%
N#Cc1ccc(NC(=O)[C@](F)(OC(F)(F)C(F)(F)C(F)(F)F)C(F)(F)F)cc1	-2%
C=CCNC(=O)N1CCC(c2nc(C)ccc2C(=O)N2CCCC2)CC1	7%
COc1cc(CN(CC(N)=O)C(C)C)ccc1C	9%
C=CCOC(=S)NC(=O)Cc1ccccc1Cl	11%
CNC(=O)N1CCN(c2cc(C)nc(C3CC3)n2)CC1	-21%
Cc1coc(-c2ccc(C)c(NC(=O)CCN3C(=O)CCC3=O)c2)n1	-28%
O=C(CCn1nc2ccccn2c1=O)N1CC(CC(F)F)C1	6%
Cc1nc2cccnc2n1-c1cc(C(=O)NCCc2ccccc2)ccc1Cl	6%
COc1ccc(N2CCN(C(=O)CN3C(=O)COc4cc(C)ccc43)CC2)cc1	2%
O=c1cc(-c2ccccc2F)[nH]c2cc3c(cc12)OCO3	9%
Cc1cc2c(cc1C)[C@H](C(=O)Nc1cc(C(N)=O)ccc1Cl)CO2	3%
Nc1nc(-c2ccc(Br)cc2)nc(-c2ccc(Br)cc2)n1	2%
Cc1cc(-c2csc(CN3C(=O)CNC3=O)n2)cc(C)c1F	-24%
C[C@@H](CCc1ccccc1)NC(=O)c1cnn2c3c(cnc12)CCCC3	-5%
C#C[C@H](C)N(C)Cc1c[nH]c(C(=O)OC)c1	-7%
CC(C)NC(=O)N(CC(=O)N1CCn2cccc2[C@H]1c1cccc(F)c1)C1CC1	12%

— ChEMBL document CHEMBL4888484, “Replenishing the malaria drug discovery pipeline: Screening and hit evaluation of the MMV Hit Generation Library 1 (HGL1) against asexual blood stage Plasmodium falciparum ,using a nano luciferase reporter read-out” (2022)
